Test results reported in the supplement of paper PMC3334620.
The full ranking holds about 33,000 sequences; the median of “E-score (-0.5 to 0.5)” is about -0.017, and the highest 2% start at about 0.3. The list shows a part of the results.

Each sequence was assayed against T1, Sut1 (UniProt P53032) (assay: PBM E-score (8-mer binding enrichment) (E-score (-0.5 to 0.5)); higher = stronger / more preferred TF binding; most listed sequences are background and not binding sites). Details: protein concentration: 200 nM; construct: GST-full length.
T1 sequence: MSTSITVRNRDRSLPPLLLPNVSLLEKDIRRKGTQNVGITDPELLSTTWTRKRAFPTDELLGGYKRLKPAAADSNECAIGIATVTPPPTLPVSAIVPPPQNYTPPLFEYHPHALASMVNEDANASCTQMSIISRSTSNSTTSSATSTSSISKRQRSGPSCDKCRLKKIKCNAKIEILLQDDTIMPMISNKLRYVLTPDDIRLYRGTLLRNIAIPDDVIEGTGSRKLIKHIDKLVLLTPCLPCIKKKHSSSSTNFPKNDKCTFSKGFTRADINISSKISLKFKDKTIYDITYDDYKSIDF
In short: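 Yeast transcription factors, full-length or as DNA-binding domains, were expressed with a GST tag using PURExpress in vitro transcription/translation. At about 100-200 nM they were applied to universal all-10-mer Agilent arrays, double-stranded by primer extension on fresh or once-stripped slides. Fluorescent anti-GST detected bound protein, and masliner normalised the scans. E-scores for ungapped eight-base words, pooled with reverse complements, came from the Universal PBM Analysis Suite.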

Sequence | PBM E-score
CTTTCACA | 0.228
AAAATTAA | 0.221
AAGATGCA | 0.041
CCGAGTCC | 0.196
TAATTGAA | 0.151
GATCCCGC | -0.0295
CGAGATCG | -0.0611
AATCCCAT | -0.147
CCAGCGCC | -0.212
AGACGAAA | 0.148
ATAAATGA | 0.216
CGCGTCCA | -0.207
GGATACCC | -0.131
CGCCTTTC | 0.0174
ATGCACCA | -0.134
AACTTTAC | 0.113
AAGCGAAT | 0.0646
GCTTCTCA | -0.145
CCGGTAGG | -0.0706
AACTACTC | 0.243
CCTCGGGA | -0.294
AGTCTTTC | 0.0659

Sequence | PBM E-score
CACTCGGC | -0.0174
CCATATCA | 0.0517
CGACCCGC | -0.273
AGCTTCAT | 0.00711
GTTTTTTA | 0.196
ACGCCTGG | -0.127
CATAATAG | 0.16
GTACCACA | -0.0203
CGGGCAAC | -0.108
CTCCTGTA | -0.0581
CAAATAGC | 0.116
CAGTGGCC | -0.197
CCCCTTGC | -0.385
ACGACCGC | -0.195
CTTATAAA | 0.181
CGCAAACA | 0.0526
TCAGAAGA | -0.253
ACTAGTTA | 0.151
ACGGAACG | 0.129
CCTAATAC | -0.0206
ATGGCTGC | -0.285
GTCTAGTA | 0.0398

Sequence | PBM E-score
TATCCGGA | 0.39
CCACAACG | -0.103
ATTCTTTA | 0.253
GCCATGCA | -0.0215
CCGGGGCG | 0.0839
CAATCGTG | -0.13
CATCCACG | -0.212
GCCGTAAA | 0.154
AGTCATAA | 0.0636
CTGGGAAA | -0.0965
AATCAGAC | 0.0694
CAGAGCTG | -0.259
TCATCTAA | 0.154
AGATGACA | -0.0995
GGAGAAAA | 0.198
GCGCGCTA | 0.0469
GTATCTCA | 0.157
AGATTGCG | 0.159
CACCGTCA | -0.171
AAGGTCGA | -0.174
GGTAGTAA | -0.0759
GGTCGAAC | -0.049

Sequence | PBM E-score
ACCTAGGC | -0.145
CATCAGTC | -0.111
ACGTGGAT | -0.165
ACCCCAAC | -0.0979
ACGCAGTG | -0.122
CCGAATAG | 0.119
ACAAAGAC | 0.0725
CTCTAAGC | 0.033
GCTGTGTA | -0.121
CATAGGGA | -0.0219
CCCCCTCA | -0.432
CCACACTC | -0.0546
ACTCTGCT | -0.0559
ATGCGAGC | -0.151
ATACAAAA | 0.288
ACACTTTC | 0.0477
GCACGTAC | -0.266
CCTTTTAG | -0.218
AAATTGAC | 0.159
ATATATAA | 0.351
